Results reported in the supplement of paper PMC4604168 (melanoma cell lines).
The list shows a part of the results. Repeats are few or missing, and single values can be far off.

What was measured:
Test in all cases: cell count relative to DMSO control; melanoma cells; higher = more viable cells
Details in all cases: library dose: standard library concentration; 72 h
G361 = tested on: G361
IPC-298 = tested on: IPC-298
IST-MEL1 = tested on: IST-MEL1
LB2518-MEL = tested on: LB2518-MEL
LOXIMVI = tested on: LOXIMVI
MEL-HO = tested on: MEL-HO
MZ2-MEL = tested on: MZ2-MEL
MeWo = tested on: MeWo
RPMI7951 = tested on: RPMI7951
RVH-421 = tested on: RVH-421
SkMel28 = tested on: SkMel28
SkMel2 = tested on: SkMel2
SkMel30 = tested on: SkMel30
SkMel5 = tested on: SkMel5
UACC257 = tested on: UACC257
UACC62 = tested on: UACC62
WM115 = tested on: WM115
WM1716 = tested on: WM1716
WM1745 = tested on: WM1745
WM3526 = tested on: WM3526
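Further: cells treated in 1,536-well plates, then fixed and DAPI-stained, with nuclei counted from automated high-throughput microscope images.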

SMILES | cell count (G361) [%] | cell count (IPC-298) [%] | cell count (IST-MEL1) [%] | cell count (LB2518-MEL) [%] | cell count (LOXIMVI) [%] | cell count (MEL-HO) [%] | cell count (MZ2-MEL) [%] | cell count (MeWo) [%] | cell count (RPMI7951) [%] | cell count (RVH-421) [%] | cell count (SkMel28) [%] | cell count (SkMel2) [%] | cell count (SkMel30) [%] | cell count (SkMel5) [%] | cell count (UACC257) [%] | cell count (UACC62) [%] | cell count (WM115) [%] | cell count (WM1716) [%] | cell count (WM1745) [%] | cell count (WM3526) [%]
C#Cc1cccc(Nc2ncnc3cc(OCCOC)c(OCCOC)cc23)c1 [erlotinib] + C[C@@H]1CCN(C(=O)CC#N)C[C@@H]1N(C)c1ncnc2[nH]ccc12 [CP690550] (first compound 4 µM, partner dose 5 µM) | 71.4 | 74.3 | 83.6 | 65.1 | 89 | 82.1 | 86.3 | 73.1 | 69.1 | 113 | 57.8 | 87 | 64.8 | 64.4 | 97.3 | 71.6 | 66.8 | 88.2 | 56 | 87.7
COCC[n+]1c2c(n(Cc3cnccn3)c1C)C(=O)c1ccccc1C2=O + COc1cc2c(Oc3ccc4[nH]c(C)cc4c3F)ncnc2cc1OCCCN1CCCC1 [cediranib] (first compound 0.002 µM, partner dose 2 µM) | 67.8 | 58.5 | 39.2 | 31.1 | 95.7 | 91.7 | 53.6 | 51 | 46.6 | 94.8 | 57.9 | 11.6 | 67.8 | 37.6 | 22.5 | 71.1 | 79.5 | 53.7 | 88.9 | 42.5
O=C(CCCCCCC(=O)Nc1ccccc1)NO [vorinostat] + CC(C)(C)c1cnc(CSc2cnc(NC(=O)C3CCNCC3)s2)o1 [SNS-032] (first compound 0.4 µM, partner dose 0.05 µM) | 71.9 | 105 | 99.6 | 75.6 | 63.6 | 88.7 | 112 | 79 | 39.2 | 104 | 40.9 | 75.4 | 83.3 | 63.1 | 64.9 | 63.5 | 79.5 | 90.8 | 119 | 72.9
Cn1c(Nc2ccc(C(F)(F)F)cc2)nc2cc(Oc3ccnc(-c4ncc(C(F)(F)F)[nH]4)c3)ccc21 + Cc1cc(N2CCOCC2)cc2[nH]c(-c3c(NC[C@@H](O)c4cccc(Cl)c4)cc[nH]c3=O)nc12 [BMS536924] (first compound 0.4 µM, partner dose 1 µM) | 13 | 47.1 | 287 | 25.7 | 45 | 67.9 | 60 | 62.6 | 55.8 | 41.9 | 20.5 | 12.5 | 50.3 | 35.5 | 74.3 | 42 | 42 | 71.8 | 31.6 | 33.6
Clc1ccc(Nc2nnc(Cc3ccncc3)c3ccccc23)cc1 [vatalanib] + NCC(=O)Nc1ccc(-n2nc(C(F)(F)F)cc2-c2ccc3c(ccc4ccccc43)c2)cc1 [OSU03012] (first compound 10 µM, partner dose 5 µM) | 41.9 | 39.7 | 64.9 | 25.2 | 46.2 | 46 | 18.4 | 63.5 | 30 | 30.4 | 11.1 | 17.4 | 18.9 | 31.5 | 63.4 | 50.7 | 54.4 | 64.1 | 24.9 | 26.6
OCc1c[nH]c2ccccc12 [Indole-3-carbinol] + C=CCn1c(=O)c2cnc(Nc3ccc(N4CCN(C)CC4)cc3)nc2n1-c1cccc(C(C)(C)O)n1 [MK1775] (first compound 4 µM, partner dose 0.1 µM) | 86.2 | 100 | 81.3 | 71 | 79.4 | 76.7 | 112 | 82.8 | 75.7 | 106 | 46.9 | 76.8 | 73.9 | 69.1 | 89 | 79 | 78 | 83.7 | 56.1 | 75.6
O=C(CCCCCCC(=O)Nc1ccccc1)NO [vorinostat] + CN(C)S(=O)(=O)c1ccc2c(c1)/C(=C/c1cc3c([nH]1)CCCC3)C(=O)N2 [SU6656] (first compound 0.4 µM, partner dose 2 µM) | 60.5 | 44.5 | 63 | 68.1 | 63.4 | 64.6 | 78.9 | 69.1 | 48.2 | 72.5 | 38.6 | 58.2 | 74.9 | 58.7 | 67.1 | 69.5 | 33.4 | 36.9 | 82.5 | 62.3
Nc1cccc2c1CN(C1CCC(=O)NC1=O)C2=O (stereo not given) [lenalidomide] + O=C(Nc1ccccc1)c1cc([N+](=O)[O-])ccc1Cl [GW9662] (first compound 5 µM, partner dose 10 µM) | 73.3 | 106 | 107 | 92.7 | 91 | 85.4 | 81.5 | 91.5 | 96.6 | 72.8 | 62 | 83.5 | 87.7 | 93 | 83.2 | 80.9 | 77 | 102 | 97.8 | 90.3
Clc1ccc(Nc2nnc(Cc3ccncc3)c3ccccc23)cc1 [vatalanib] + C=CCn1c(=O)c2cnc(Nc3ccc(N4CCN(C)CC4)cc3)nc2n1-c1cccc(C(C)(C)O)n1 [MK1775] (first compound 10 µM, partner dose 0.1 µM) | 59.7 | 61.1 | 63 | 50 | 75.8 | 65.3 | 81.2 | 72.7 | 47.2 | 15.6 | 39.9 | 66.7 | 73.3 | 43.6 | 80.3 | 55.9 | 77.4 | 97.9 | 45.8 | 76.8
C#Cc1cccc(Nc2ncnc3cc(OCCOC)c(OCCOC)cc23)c1 [erlotinib] + COc1cc2ncnc(Nc3ccc(Oc4ccccc4)cc3)c2cc1OC [SrcI1] (first compound 4 µM, partner dose 10 µM) | 31.1 | 53.8 | 89 | 70.6 | 67.6 | 59.2 | 45.5 | 54.2 | 27.1 | 72.3 | 44.1 | 80.7 | 74 | 60.5 | 89.2 | 43.1 | 58.9 | 76.4 | 41.5 | 46.7
OCc1c[nH]c2ccccc12 [Indole-3-carbinol] + C[C@@H]1CCN(C(=O)CC#N)C[C@@H]1N(C)c1ncnc2[nH]ccc12 [CP690550] (first compound 4 µM, partner dose 5 µM) | 106 | 115 | 107 | 106 | 115 | 100 | 122 | 85 | 95.4 | 95.5 | 143 | 97.6 | 123 | 78.6 | 107 | 118 | 109 | 97.4 | 77.5 | 101
Clc1ccc(Nc2nnc(Cc3ccncc3)c3ccccc23)cc1 [vatalanib] + Cc1nc(Nc2ncc(C(=O)Nc3c(C)cccc3Cl)s2)cc(N2CCN(CCO)CC2)n1 [dasatanib] (first compound 10 µM, partner dose 0.02 µM) | 61.5 | 58.7 | 53.6 | 60.8 | 7.13 | 49.6 | 27.2 | 71.4 | 23 | 56 | 48.8 | 71.7 | 78.7 | 52.8 | 62.2 | 60.1 | 45 | 51.5 | 24.2 | 80.3
Nc1cccc2c1CN(C1CCC(=O)NC1=O)C2=O (stereo not given) [lenalidomide] + OCCn1cc(-c2cnc3nnn(Cc4ccc5ncccc5c4)c3n2)cn1 [PF04217903] (first compound 5 µM, partner dose 5 µM) | 78.3 | 95.4 | 121 | 110 | 96.8 | 115 | 114 | 82.1 | 80.7 | 113 | 145 | 96.2 | 104 | 106 | 106 | 94.2 | 102 | 102 | 66.3 | 87
Nc1cccc2c1CN(C1CCC(=O)NC1=O)C2=O (stereo not given) [lenalidomide] + Cn1nnc2c(C(N)=O)ncn2c1=O [temozolomide] (first compound 5 µM, partner dose 10 µM) | 97.6 | 107 | 85.3 | 106 | 93.5 | 105 | 111 | 120 | 81.5 | 145 | 40.8 | 108 | 70.5 | 102 | 99 | 55.5 | 85.9 | 64.2 | 82.3 | 103
Cn1c(Nc2ccc(C(F)(F)F)cc2)nc2cc(Oc3ccnc(-c4ncc(C(F)(F)F)[nH]4)c3)ccc21 + CN(C)S(=O)(=O)c1ccc2c(c1)/C(=C/c1cc3c([nH]1)CCCC3)C(=O)N2 [SU6656] (first compound 0.4 µM, partner dose 2 µM) | 23.6 | 42.5 | 65.5 | 30.3 | 77.7 | 71.3 | 30.5 | 56.6 | 35 | 45 | 22.1 | 43.6 | 58.5 | 36.9 | 58.4 | 41.1 | 28.3 | 55 | 33.6 | 34.5
O=C(CCCCCCC(=O)Nc1ccccc1)NO [vorinostat] + O=C1NC(=O)/C(=C/c2ccc(-c3ccc(F)cc3O)o2)S1 [AS252424] (first compound 0.4 µM, partner dose 5 µM) | 52.3 | 72.6 | 90.2 | 75.5 | 70.7 | 71.8 | 90.6 | 75.1 | 73.5 | 77.4 | 40.2 | 63.7 | 89.9 | 70 | 66.4 | 80.7 | 100 | 88 | 82.1 | 77.8
Nc1cccc2c1CN(C1CCC(=O)NC1=O)C2=O (stereo not given) [lenalidomide] + CCc1ccc(CCOc2ccc(CC3SC(=O)NC3=O)cc2)nc1 [pioglitazone] (first compound 5 µM, partner dose 10 µM) | 85.9 | 94.2 | 86.3 | 90.6 | 95.8 | 98.8 | 105 | 89.5 | 84.6 | 103 | 82.7 | 86.1 | 74.1 | 98.8 | 112 | 76.8 | 77.3 | 82.8 | 73.2 | 87.4
